# Reference: the supplement of paper PMC8728848
# This is one part of the list.
# B1: Gal 3 (Homo sapiens), P17931 (protein)
# chain: MADNFSLHDALSGSGNPNPQGWPGAWGNQPAGAGGYPGASYPGAYPGQAPPGAYPGQAPPGAYHGAPGAYPGAPAPGVYPGPPSGPGAYPSSGQPSAPGAYPATGPYGAPAGPLIVPYNLPLPGGVVPRMLITILGTVKPNANILDFQRGNDVAFHFNPRFNENNRRVIVCNTLLDNNWGREERQSVFPFESGKPFKIQVLVEPDHFKVAVNDAHLLQYNHRVKKLNEISKLGISGDIDLTSASYTMI
# Experiments:
# Test in all cases: glycan array binding signal (z-score within array); higher = stronger binding
# Details in all cases: glycan notation: IUPAC condensed, linker removed; mutation: K176L
# [1] = target: Gal(b1-4)GlcNAc(a1-6)Gal(b1-4)GlcNAc
# Procedure, shortened: (§1)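 The binding signal is a Z-score computed within each array and averaged over linkers. Arrays of the same protein sequence at different concentrations or buffers were also averaged together. Data originate from 3228 arrays in the Consortium for Functional Glycomics database, kept only where the protein sequence was available.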
# [2] = target: Gal(b1-4)GlcNAc(b1-2)Man(a1-3)Man(b1-4)GlcNAc(b1-4)GlcNAc
# Procedure, shortened: as §1
# [3] = target: Gal(b1-4)GlcNAc(b1-2)Man(a1-3)[Gal(b1-4)GlcNAc(b1-2)Man(a1-6)]Man(b1-4)GlcNAc(b1-4)GlcNAc
# Procedure, shortened: as §1
# [4] = target: Gal(b1-4)GlcNAc(b1-2)Man(a1-3)[Gal(b1-4)GlcNAc(b1-2)Man(a1-6)]Man(b1-4)GlcNAc(b1-4)[Fuc(a1-6)]GlcNAc
# Procedure, shortened: as §1
# [5] = target: Gal(b1-4)GlcNAc(b1-2)Man(a1-3)[GlcNAc(b1-2)Man(a1-6)]Man(b1-4)GlcNAc(b1-4)GlcNAc
# Procedure, shortened: as §1
# [6] = target: Gal(b1-4)GlcNAc(b1-2)Man(a1-3)[Man(a1-6)]Man(b1-4)GlcNAc(b1-4)GlcNAc
# Procedure, shortened: as §1
# [7] = target: Gal(b1-4)GlcNAc(b1-2)Man(a1-6)Man(b1-4)GlcNAc(b1-4)GlcNAc
# Procedure, shortened: as §1
# [8] = target: Gal(b1-4)GlcNAc(b1-2)Man(a1-6)[GlcNAc(b1-2)Man(a1-3)]Man(b1-4)GlcNAc(b1-4)GlcNAc
# Procedure, shortened: as §1
# [9] = target: Gal(b1-4)GlcNAc(b1-2)Man(a1-6)[Man(a1-3)]Man(b1-4)GlcNAc(b1-4)GlcNAc
# Procedure, shortened: as §1
# [10] = target: Gal(b1-4)GlcNAc(b1-2)[Gal(b1-4)GlcNAc(b1-4)]Man(a1-3)[Gal(b1-4)GlcNAc(b1-2)Man(a1-6)]Man(b1-4)GlcNAc(b1-4)GlcNAc
# Procedure, shortened: as §1
# [11] = target: Gal(b1-4)GlcNAc(b1-2)[Gal(b1-4)GlcNAc(b1-4)]Man(a1-3)[Gal(b1-4)GlcNAc(b1-2)[Gal(b1-4)GlcNAc(b1-6)]Man(a1-6)]Man(b1-4)GlcNAc(b1-4)GlcNAc
# Procedure, shortened: as §1
# [12] = target: Gal(b1-4)GlcNAc(b1-3)Gal(b1-3)GlcNAc
# Procedure, shortened: as §1
# [13] = target: Gal(b1-4)GlcNAc(b1-3)Gal(b1-4)Glc
# Procedure, shortened: as §1
# [14] = target: Gal(b1-4)GlcNAc(b1-3)Gal(b1-4)GlcNAc
# Procedure, shortened: as §1
# [15] = target: Gal(b1-4)GlcNAc(b1-3)Gal(b1-4)GlcNAc(b1-3)Gal(b1-4)GlcNAc
# Procedure, shortened: as §1
# [16] = target: Gal(b1-4)GlcNAc(b1-3)Gal(b1-4)[Fuc(a1-3)]GlcNAc(b1-3)Gal(b1-4)[Fuc(a1-3)]GlcNAc
# Procedure, shortened: as §1
# [17] = target: Gal(b1-4)GlcNAc(b1-3)GalNAc
# Procedure, shortened: as §1
# [18] = target: Gal(b1-4)GlcNAc(b1-3)[Gal(b1-4)GlcNAc(b1-6)]Gal(b1-4)GlcNAc
# Procedure, shortened: as §1
# [19] = target: Gal(b1-4)GlcNAc(b1-3)[Gal(b1-4)GlcNAc(b1-6)]GalNAc
# Procedure, shortened: as §1
# [20] = target: Gal(b1-4)GlcNAc(b1-3)[GlcNAc(b1-6)]Gal(b1-4)GlcNAc
# Procedure, shortened: as §1
# [21] = target: Gal(b1-4)GlcNAc(b1-6)Gal(b1-4)GlcNAc
# Procedure, shortened: as §1
# [22] = target: Gal(b1-4)GlcNAc(b1-6)GalNAc
# Procedure, shortened: as §1
# [23] = target: Gal(b1-4)GlcNAc(b1-6)[Gal(b1-3)]GalNAc
# Procedure, shortened: as §1
# Gal3S(b1-3)GalNAc = target: Gal3S(b1-3)GalNAc
# Procedure, shortened: as §1
# Gal3S(b1-3)GlcNAc = target: Gal3S(b1-3)GlcNAc
# Procedure, shortened: as §1
# [24] = target: Gal3S(b1-3)[Fuc(a1-4)]GlcNAc
# Procedure, shortened: as §1
# Gal3S(b1-4)Glc = target: Gal3S(b1-4)Glc
# Procedure, shortened: as §1
# Gal3S(b1-4)Glc6S = target: Gal3S(b1-4)Glc6S
# Procedure, shortened: as §1
# Gal3S(b1-4)GlcNAc = target: Gal3S(b1-4)GlcNAc
# Procedure, shortened: as §1
# Gal3S(b1-4)GlcNAc6S = target: Gal3S(b1-4)GlcNAc6S
# Procedure, shortened: as §1
# [25] = target: Gal3S(b1-4)[Fuc(a1-3)]Glc
# Procedure, shortened: as §1
# [26] = target: Gal3S(b1-4)[Fuc(a1-3)]Glc6S
# Procedure, shortened: as §1
# Gal3S4S(b1-4)GlcNAc = target: Gal3S4S(b1-4)GlcNAc
# Procedure, shortened: as §1
# Gal3S6S(b1-4)GlcNAc = target: Gal3S6S(b1-4)GlcNAc
# Procedure, shortened: as §1
# Gal3S6S(b1-4)GlcNAc6S = target: Gal3S6S(b1-4)GlcNAc6S
# Procedure, shortened: as §1
# Gal4S(b1-4)GlcNAc = target: Gal4S(b1-4)GlcNAc
# Procedure, shortened: as §1
# Gal4S6S(b1-4)GlcNAc = target: Gal4S6S(b1-4)GlcNAc
# Procedure, shortened: as §1
binder,measurement,setting,value
B1,glycan array binding signal (z-score),[1],-0.262
same,glycan array binding signal (z-score),[2],-0.268
same,glycan array binding signal (z-score),[3],0.403
same,glycan array binding signal (z-score),[4],-0.269
same,glycan array binding signal (z-score),[5],-0.267
same,glycan array binding signal (z-score),[6],-0.269
same,glycan array binding signal (z-score),[7],-0.267
same,glycan array binding signal (z-score),[8],-0.266
same,glycan array binding signal (z-score),[9],-0.271
same,glycan array binding signal (z-score),[10],-0.21
same,glycan array binding signal (z-score),[11],1.1
same,glycan array binding signal (z-score),[12],2.47
same,glycan array binding signal (z-score),[13],1.53
same,glycan array binding signal (z-score),[14],3.99
same,glycan array binding signal (z-score),[15],5.22
same,glycan array binding signal (z-score),[16],-0.264
same,glycan array binding signal (z-score),[17],-0.267
same,glycan array binding signal (z-score),[18],0.064
same,glycan array binding signal (z-score),[19],-0.256
same,glycan array binding signal (z-score),[20],-0.266
same,glycan array binding signal (z-score),[21],-0.269
same,glycan array binding signal (z-score),[22],-0.265
same,glycan array binding signal (z-score),[23],-0.268
same,glycan array binding signal (z-score),Gal3S(b1-3)GalNAc,-0.267
same,glycan array binding signal (z-score),Gal3S(b1-3)GlcNAc,-0.262
same,glycan array binding signal (z-score),[24],-0.27
same,glycan array binding signal (z-score),Gal3S(b1-4)Glc,-0.271
same,glycan array binding signal (z-score),Gal3S(b1-4)Glc6S,-0.271
same,glycan array binding signal (z-score),Gal3S(b1-4)GlcNAc,-0.267
same,glycan array binding signal (z-score),Gal3S(b1-4)GlcNAc6S,-0.264
same,glycan array binding signal (z-score),[25],-0.269
same,glycan array binding signal (z-score),[26],-0.265
same,glycan array binding signal (z-score),Gal3S4S(b1-4)GlcNAc,-0.263
same,glycan array binding signal (z-score),Gal3S6S(b1-4)GlcNAc,-0.272
same,glycan array binding signal (z-score),Gal3S6S(b1-4)GlcNAc6S,-0.261
same,glycan array binding signal (z-score),Gal4S(b1-4)GlcNAc,-0.268
same,glycan array binding signal (z-score),Gal4S6S(b1-4)GlcNAc,-0.266
